# Paper PMC6919601, “Identification of Plasmodium dipeptidyl aminopeptidase allosteric inhibitors by high throughput screening” (PLoS ONE, 2019)
# The whole screen tested about 110,000 compounds, of which about 230 (0.21%) showed an effect of 50% or more. Some of the results follow.
# Target: DPAP1 (Plasmodium falciparum, UniProt Q8IIJ9)
# Test: primary screen, percent inhibition; read by cleavage of a fluorogenic dipeptide substrate; higher = more effect of the substance
# Design: species or system P. falciparum D10 trophozoite lysates; single well
# 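Further: 30 min substrate incubation versus DMSO and 10 µM JCP410 controls.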
# DPAP1, sequence (Q8IIJ9 whole entry, looked up): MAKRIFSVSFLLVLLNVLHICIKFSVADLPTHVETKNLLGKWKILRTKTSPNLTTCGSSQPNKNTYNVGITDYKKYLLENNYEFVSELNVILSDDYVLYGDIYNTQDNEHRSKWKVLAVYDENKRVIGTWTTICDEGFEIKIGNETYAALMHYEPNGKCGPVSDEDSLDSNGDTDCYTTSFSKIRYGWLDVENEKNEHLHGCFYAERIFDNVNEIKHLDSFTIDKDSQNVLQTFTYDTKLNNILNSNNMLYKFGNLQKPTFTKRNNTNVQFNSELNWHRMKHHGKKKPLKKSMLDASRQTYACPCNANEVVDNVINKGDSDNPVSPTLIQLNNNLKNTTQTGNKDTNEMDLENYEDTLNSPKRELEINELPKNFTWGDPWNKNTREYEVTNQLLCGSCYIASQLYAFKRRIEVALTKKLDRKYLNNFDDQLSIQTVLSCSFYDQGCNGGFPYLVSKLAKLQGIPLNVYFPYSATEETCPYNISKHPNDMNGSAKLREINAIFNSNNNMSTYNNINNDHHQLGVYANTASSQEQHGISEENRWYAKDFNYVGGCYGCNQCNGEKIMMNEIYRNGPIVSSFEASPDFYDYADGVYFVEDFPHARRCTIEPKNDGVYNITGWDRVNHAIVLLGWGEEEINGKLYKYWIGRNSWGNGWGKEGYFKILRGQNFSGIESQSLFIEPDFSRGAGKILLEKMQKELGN
row,Structure (SMILES),% Inhibition @ 10 uM
1,O=C(O)CCC(=O)Nc1ccc(-c2nc3cc(C(=O)c4ccccc4)ccc3[nH]2)cc1,14.2%
2,Cc1cccc(NS(=O)(=O)c2ccc(NC(=O)c3ccc([N+](=O)[O-])cc3)cc2)c1,2.55%
3,Sc1ncnc2sc3c(c12)CCCC3,38%
4,CC1CC(=O)C2=C(C1)OC(N)=C(C#N)C2c1ccc(F)cc1F (stereo not shown),-3.13%
5,c1ccc(-n2nnnc2-c2ccc(-c3nnnn3-c3ccccc3)cc2)cc1,-5.34%
6,Cc1ccc2onc(CNC(=O)NCCC3=CCCCC3)c2c1,-3.73%
7,COC(=O)CCC(=O)Nc1cccc2c(NC(=O)CCC(=O)OC)cccc12,-2.66%
8,CN(C)CCNc1ncnc2c1cnn2-c1ccc(Cl)cc1,-4.82%
9,CCN1C(=O)N/C(=C/c2ccccc2OC)C1=O,-11.2%
10,COc1ccccc1[C@@H](C)C[C@H](NC(=O)c1ccc(-c2ccccc2Cl)cc1)C(=O)NCC#N,-1.5%
11,COc1ccc(OC)c(C2C=C(c3ccc(C)cc3)Nc3ncnn32)c1 (stereo not shown),-5.19%
12,O=C(Nc1ccc(F)c(Cl)c1)c1sc2ccccc2c1Cl,2.78%
13,O=C1C2C3CCC(O3)C2C(=O)N1c1cccc(F)c1 (stereo not shown),-5.67%
14,Cc1ccc(-c2cccc(N)c2)o1,0.132%
15,O=S(=O)(NCc1ccccc1Cl)c1ccc2[nH]c3c(c2c1)CCCC3,-2.22%
16,COc1ccc(-c2onc(C)c2C)cc1S(=O)(=O)NCCc1ccc(Cl)cc1,-3.37%
17,CCOCCCNC(=O)c1cc2c(=O)n3ccccc3nc2n1C,1.1%
18,OCCN(CCO)CC1CC=CCC1 (stereo not shown),-0.603%
19,Oc1ccccc1-c1noc(-c2ccccc2O)n1,0.526%
20,Cc1onc(-c2ccccc2)c1C(=O)Nc1sc2c(c1C(N)=O)CCCCC2,15%
21,COc1ccccc1/C=C/CN1CCOCC1,-1.78%
22,CCN(CC)C(=O)c1sc2ccccc2c1Cl,-2.42%
23,COc1ccc(C(=O)C2=C(O)C(=O)N(c3ncccn3)C2c2cccc(Br)c2)cc1 (stereo not shown),1.61%

row,Structure (SMILES),% Inhibition @ 10 uM
1,CCN(Cc1ccncc1)C(=O)c1cccc([N+](=O)[O-])c1C,1.04%
2,O=S(=O)(c1cc(Cl)ccc1Cl)N1CCCC1,-4.91%
3,Cc1nc2nc(CN)nn2c(C)c1CCC(=O)O,-2.39%
4,CC(=O)Nc1ccc(-c2cc(-c3cccc(NC(C)=O)c3)nc(-c3ccccc3)n2)cc1,5.64%
5,COc1cc(C(=O)Nc2ccc(C)cc2C)ccc1OC(F)F,3.24%
6,NC(=S)NC1CCS(=O)(=O)C1 (stereo not shown),0.884%
7,Cn1cnc([N+](=O)[O-])c1Sc1cn2c(n1)CCC2,-3.48%
8,Cc1oc2cc3oc(=O)c(CCC(=O)NCc4ccc(F)cc4)c(C)c3cc2c1C,-2.57%
9,O=C(c1ccccc1)c1ccccc1C(=O)N(C1CCCCC1)C1CCCCC1,1.17%
10,CO/C(O)=C1/C(C)=NC2=C(C(=O)CC(c3ccccc3)C2)C1c1ccc(Cl)cc1 (stereo not shown),-0.0953%
11,CCC(=O)Nc1ccc(Cl)c(NC(=O)c2ccccc2F)c1,-3.23%
12,COc1ccccc1Nc1cc(C)nc2cc(Cl)ccc12,-15.1%
13,COc1cccc(CNc2nc3nc4c(c(O)n3n2)CCC4)c1,-8.21%
14,CCC(=O)NS(=O)(=O)c1cccnc1Nc1ccccc1Cl,0.245%
15,CCCOC(=O)C1=C(C)NC(=O)NC1c1ccc(Cl)cc1Cl (stereo not shown),-4.18%
16,O=C1NC(=O)C(=Cc2c[nH]nc2-c2ccccc2)C(=O)N1,-2.77%
17,Cc1cc(SCc2ccccc2)n2ncnc2n1,4.9%
18,O=C(NCCCCCCNC(=O)c1ccco1)c1ccco1,3.34%
19,OCC1CCCN1Cc1ccc(F)cc1F (stereo not shown),-1.41%
20,c1ccc(Cn2cc(Cn3nnc(-c4ccccc4)n3)nn2)cc1,-4.35%
21,CC(NC(=O)CSc1nnc2c(n1)[nH]c1ccccc12)c1ccccc1 (stereo not shown),0.0719%
22,NS(=O)(=O)c1ccc(NC(=S)NC(=O)c2cccnc2)cc1,-5.33%
23,Cc1cc(C)c2c(-n3cccc3)c(C(=O)N3CCCCC3)sc2n1,-4.91%

row,Structure (SMILES),% Inhibition @ 10 uM
1,O=C(c1ccccc1Cl)N1CCOCC1,1.55%
2,CCOC(=O)c1c(NC(C)=O)sc2c(O)c([N+](=O)[O-])cc([N+](=O)[O-])c12,-4.06%
3,O=C(NC1CCCCC1)N1CCN(C2CCCCC2)CC1,-2.28%
4,CC1=CC(C)OC(c2ccc(OCC(O)CN3CCCCC3)cc2)C1 (stereo not shown),34.2%
5,Cc1ccc(C2=C(C#N)C(N)=C(C#N)C3=CCCC32)c(C)c1 (stereo not shown),-2.51%
6,CCCSc1nnc(NC(=O)Cc2coc3ccc(C)cc23)s1,-4.19%
7,Cc1ccc(Cl)cc1NC(=O)c1ccccc1C,0.247%
8,O=C(NCCCCCCNC(=O)c1cncc(Br)c1)c1ccc(Br)nc1,-11.3%
9,O=C1CCCc2c1n(CCN(Cc1ccccc1)Cc1ccccc1)c1ccc([N+](=O)[O-])cc21,-0.216%
10,CCc1nc2ccc(C(=O)NCc3cc(Br)ccc3OC)cc2nc1CC,7.01%
11,CCOc1ccc(NC(=O)c2cccs2)cc1,3.03%
12,Cc1ccc(N(CC(=O)N2CCN(Cc3ccccc3)CC2)S(=O)(=O)c2ccccc2)cc1,-2.6%
13,COc1cc(C2CC(=O)NC(SCc3ccccc3)=C2C#N)cc(Br)c1O (stereo not shown),-1.26%
14,O=C(Nc1ccccc1)c1cccc(NC(=O)c2cccc([N+](=O)[O-])c2)c1,5.42%
15,CCO/C(O)=C1/C(C)=NC(=S)NC1c1ccc(OCC(=O)N2CCCCC2)cc1 (stereo not shown),3.39%
16,Cc1cc(N(C)C)c(=O)n(-c2ccccc2)n1,5.74%
17,CCCCOc1ccc(NC(=O)CSc2ncccn2)cc1,0.145%
18,COc1ccc(C2=NN(C(=O)C3CCCCC3)C(c3ccccc3)C2)cc1 (stereo not shown),-1.17%
19,Cc1oc(-c2cccs2)nc1CSc1nnc(C)n2c1cc1occc12,3.35%
20,O=C(CN1CCCCC1)N1CCc2ccccc21,-0.414%
21,COc1cc2c(cc1/C=C1/SC(Nc3cccc(C)c3)=NC1=O)OCO2,-7%
